Test results as given in paper PMC12136788.
The other results are listed elsewhere or left out.

B1: 9960549_9963260_328_CDS_ENSMUSG00000024287_ENSMUST00000025137|mouse|control|control (ssRNA)
RNA: GGGAGUUCUACAGUCCGACGAUCUGACUUCCAAGUAGCAACAUUUUUUUCAACAAAAGUGAAUAUUGUGUCACACUGAUCCAAAGGAAGGCAGUCUAAGACAUCUCCCAAUAGCACAAAUGGUGUGGACGCAGUACAAACACUCAACAGAGGAUUGAGCAUCA
B2: chr2:47387792:47387793:-_ENSG00000143933_ENST00000272298|hu_hu|hu_hu_hu_mus_True|18_18 (ssRNA)
RNA: GGGAGUUCUACAGUCCGACGAUCUAAGGACAAUGACAGUAAGAUAAGGGAAGAAAACAUGGAGGAAUGAAGUCCUAAUUACUAUACAUGCAUAUUUUUUGACAGUAGGGGGGGGGACUUUUACAGAGAUAAGUUACAAACAAACAACAGAGGAUUGAGCAUCA
B3: chr2:26350769:26350770:+_ENSG00000084733_ENST00000264710|hu_mus|FALSE|FALSE (ssRNA)
RNA: GGGAGUUCUACAGUCCGACGAUCGAUGUCUUCAGCUAAUGUGAGGAACGCCUUUUCGAUGUUUAUAUUUGCUUUUGCACUAGUCUCAAAAAACCUAAUACCAUGCUCCCUUGCAAUCUGUUCUCCUUUGCCUUUCGGUACAACCAACAGAGGAUUGAGCAUCA
B4: chr7:54825262:54825263:-_ENSG00000132432_ENST00000352861|hu_hu|hu_hu_hu_mus_False|88_98 (ssRNA)
RNA: GGGAGUUCUACAGUCCGACGAUCCUGCCGGCUGGGCACAAACUGCAUUACCUGAUCAUCCAUGUUUGUUGGAUGGCGGAUUGAGAGCGUAGAGACACGUAGCUCAGGAGAGAACCGAGCCCAACGGAACCGGAAGCUGGCAACCAACAGAGGAUUGAGCAUCA
B5: 24910103_24910223_1147_CDS_ENSG00000107863_ENST00000396432|human|control|control (ssRNA)
RNA: GGGAGUUCUACAGUCCGACGAUCAGGUUGUGUCAGUACUGGUGUACUGGUUUGCUGUUUGCUCAAUGAUGAGUCAGGAGGAGAUAUUUCAACUGGCUGUGCCAUGGCUGAUGGGGCAGAUGGCAGCCAGGGAUAGCAGAUUGGCAACAGAGGAUUGAGCAUCA
B6: chr17:7144716:7144717:-_ENSG00000170296_ENST00000577035|hu_mus|FALSE|FALSE (ssRNA)
RNA: GGGAGUUCUACAGUCCGACGAUCCUGGUACAGCUGACCCAUCGUGGCACUGGUGGGUGGAAUGACAUUGUUGACAAAGAAAAACAAGGCAUCUUCAGCACGGAGAUGAAUUCGCUUCCGGAUCAAGAAGUAGAAUUGACCAACCAACAGAGGAUUGAGCAUCA
B7: chr6:41757443:41757444:+_ENSG00000214736_ENST00000398881|hu_mus|hu_hu_hu_mus_False|48_108 (ssRNA)
RNA: GGGAGUUCUACAGUCCGACGAUCGAACUGUCUGCUGGCAACAUCUCAGCCGACACUGGGGGAUGGGGGGGCAGUGGGGGGGGGUUCAGGGAAGGGGAGGGAGUCAACUUCAGCUGCCACUCAGGUAGGAUCUUGUGGUCACAGCAACAGAGGAUUGAGCAUCA
B8: chr2:121258011:121258012:+_ENSMUSG00000027248_ENSMUST00000028683|mus_hu|FALSE|FALSE (ssRNA)
RNA: GGGAGUUCUACAGUCCGACGAUCCUUGCCCUGUAUCAAAUCUUUAUUGUCUUCUGUCAUGUGAGGGCAGAUACCAAAAAUGUUUUCCUGGAUAAACUUUUUAAUUUUGCCACUGGUCAUUUUUUGCUCUGUAUAUGCCACAGUCAACAGAGGAUUGAGCAUCA
B9: chr2:25301763:25301764:+_ENSMUSG00000026944_ENSMUST00000102919|mus_hu|FALSE|FALSE (ssRNA)
RNA: GGGAGUUCUACAGUCCGACGAUCGAGCUUCCGCUUGUUGCCGCCGCUGUAGGUGCCAGCCGGCUUGUCUGCGUACUUGGUCAGCUCCAGCUUCUCCAGAGCCCACUUCACCACCCGGGCCUCGUCCUUCCAGGAGAUCCCACGCAACAGAGGAUUGAGCAUCA
B10: chr1:46159212:46159213:+_ENSG00000159596_ENST00000372025|hu_mus|hu_hu_hu_mus_True|48_98 (ssRNA)
RNA: GGGAGUUCUACAGUCCGACGAUCUCUGAUCCCUCCCAAGAAAGAUAGGAAACCGGCUCCAUAAGCCAUCUGAGUGAAAGCUAGGACGGGAAUAUAAGACUUUGUUAUUACCAUGAGAAGUGGGGGAGCAGUAAAGGGGAUUAACAACAGAGGAUUGAGCAUCA
B11: chr17:71578653:71578654:+_ENSMUSG00000024052_ENSMUST00000129635|mus_mus|FALSE|FALSE (ssRNA)
RNA: GGGAGUUCUACAGUCCGACGAUCAGAUCCUCUUGCUGCCUGGGCUCUCUUCUCAUCAUCUGAGCUCACACCCACAUCACCUACAUCUUCUGCAACAGGGGAAGCUGCCUGCUCCUCCUUCCUAUUGUCCUGUUUGCACUUCUUCAACAGAGGAUUGAGCAUCA
B12: chr3:95749504:95749505:+_ENSMUSG00000015749_ENSMUST00000165307|mus_mus|motif|central (ssRNA)
RNA: GGGAGUUCUACAGUCCGACGAUCAGUGUAAUUGGUUAAUUUAUAAAUAACUUUAAAACACUAUGAAUGAAAUGCACCAAACGGCACCUGUGUAAAAGCAACAAUGUUUUAAUUAUGGGCUAAAAAUGUCUAAUACAUUAAGCACAACAGAGGAUUGAGCAUCA
B13: chr5:124080617:124080618:-_ENSMUSG00000049550_ENSMUST00000063905|mus_hu|FALSE|FALSE (ssRNA)
RNA: GGGAGUUCUACAGUCCGACGAUCUUCCAUCUCUUUAGCAUGGGCAGCCCGUUCAGAGUCUUGUUGAUUCUGCAAAUUUUCUAUUUCGUGUUGGUAAUCUAGUCUCAUUUUCUCUAUUUGUGUUUUUAGUUCAGCAAAUUCUGCCAACAGAGGAUUGAGCAUCA
B14: 75715083_75722566_392_CDS_ENSG00000169375_ENST00000360439|human|control|control (ssRNA)
RNA: GGGAGUUCUACAGUCCGACGAUCCGCUGUUGGGUGAUGAUGGCUGCUAUGAACUGCUGCUAUAGCGGGCCCAUGACUGCCGGAGCUCUGUGGCAUGGCUGAAACCUGGUAGCUGGGUGUUACAGAGUACUGAAUUCCCGUAGCCAACAGAGGAUUGAGCAUCA
B15: chrX:123197699:123197700:+_ENSG00000101972_ENST00000371157|hu_hu|motif|central (ssRNA)
RNA: GGGAGUUCUACAGUCCGACGAUCUGUGUGCUUCUCUACAAUAUUCCGGAUCUGUCGCAAUAAGGCAUCCAAAUGCUUUUCGGAUCGUCCAGUGGUAUAUAUUUCCAAAUCAAAGUACUGAGGCAACUGCAACAAGUUAGUCACCAACAGAGGAUUGAGCAUCA
B16: chr3:10168198:10168199:+_ENSG00000254999_ENST00000256463|hu_mus|FALSE|FALSE (ssRNA)
RNA: GGGAGUUCUACAGUCCGACGAUCCACCUCAAACACAUUGACAAGUAGUUCCGAACAAUGUUACUGAAAAGGGAAAAAGCCUAAUGCUGUUUCCAAGAGGUCCCCUGGACUGCUUGCUCCCCCAUGCCACGUCAUACCCCAGGGCAACAGAGGAUUGAGCAUCA
B17: chrX:153993181:153993182:+_ENSG00000130826_ENST00000369550|hu_mus|FALSE|FALSE (ssRNA)
RNA: GGGAGUUCUACAGUCCGACGAUCAACAUCAUCUUCUUGUAAUGGCUUCCGGUCUUUUUUCUUCUUAUGCUUCUUUGGGAAUGUAAUUACUUCUGCAUCCGCCAUCUUGAACUGCACCGCGUGCGUCCCGCCCAAGCCGCCACACAACAGAGGAUUGAGCAUCA
B18: chr14:65675725:65675726:-_ENSMUSG00000021978_ENSMUST00000022550|mus_hu|FALSE|FALSE (ssRNA)
RNA: GGGAGUUCUACAGUCCGACGAUCGAUGGGGGGCUUCCGAGUGAUGUGGGAGACAAGGAAGUUCAUGGCAAUGUCCUCACAGUUGAUGUAUUCAUCCACCAUGUCCCGGAUGGCCUGGGGCAUCACAUAAGAAUACAGGUAGGCCAACAGAGGAUUGAGCAUCA
B19: chr2:198351390:198351391:-_ENSG00000144381_ENST00000345042|hu_hu|hu_hu_hu_mus_False|48_78 (ssRNA)
RNA: GGGAGUUCUACAGUCCGACGAUCUCAUUCCCACCCUCCACAGAAAGGCUGCUUCUGUUCUCAUCUGUGGUGACACAGCGCUACAGUCCUGAUUUUAACAGAACAGUAGAGAUGCCUCAGUGAUUUAAGUUGAAAGCAGGACACCAACAGAGGAUUGAGCAUCA
B20: chr1:168153195:168153196:+_ENSG00000143155_ENST00000367833|hu_mus|FALSE|FALSE (ssRNA)
RNA: GGGAGUUCUACAGUCCGACGAUCUAGAACGUUGUCUCCAAACAUCAUUUCAGGGAGGGAUGGCAUGUGCAGCUCGUCAGCUAACUUUUCCACAUCCGCAGACUUCAUGAUGUGGGUCUUGGACGCCGUCAGCUUCCAAGGCCCCAACAGAGGAUUGAGCAUCA
B21: chr7:141450121:141450122:+_ENSG00000106028_ENST00000265304|hu_mus|hu_hu_hu_mus_True|8_8 (ssRNA)
RNA: GGGAGUUCUACAGUCCGACGAUCUCAUCCGUUCUAUGCCUUUUCUUUUGUCUGGUCACUCAGAAAUAUAAUGUUAUCAGCUAUGAUUGUUGUUGCUUGCCGCCUCACAUUGUUUUUAUCCAUGUACUCACCAUAGUCCACUUUCAACAGAGGAUUGAGCAUCA
B22: chr5:146773622:146773623:-_ENSG00000113657_ENST00000343218|hu_hu|FALSE|FALSE (ssRNA)
RNA: GGGAGUUCUACAGUCCGACGAUCCUUCUGCCCCUCUCUUUGAGGAAGGCUUGCUUAACUCAGAGAUGUGAUAUUAGAACGGCCGCCUGGGGGCGCCACGAUGCGCUUGCUGGCUGAGCGAACCCCCUCAUCCACUUGGGUGCCCAACAGAGGAUUGAGCAUCA

What follows are binders tested against T1, UNK ZnF1-3 (human, UniProt Q9C0B0 31-174) (assay: nsRBNS (natural sequence RNA bind-n-seq); RBNS binding buffer (assumed for nsRBNS): 25 mM Tris pH 7.5, 150 mM KCl, 3 mM MgCl2, 0.01% Triton X-100, 500 ug/ml BSA, 20 U/ml SUPERase-In, 4 C; UNK is unkempt and MSI1 is Musashi-1; names of the RNAs are library labels; protein concentration not given here; high values mean tight binding).
T1 sequence: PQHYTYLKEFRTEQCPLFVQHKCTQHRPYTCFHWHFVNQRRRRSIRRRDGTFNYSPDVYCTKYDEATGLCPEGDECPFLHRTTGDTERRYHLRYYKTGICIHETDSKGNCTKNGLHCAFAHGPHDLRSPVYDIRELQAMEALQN

Binder | binding signal [enrichment R]
B1 | 1.52
B2 | 2.53
B3 | 0.453
B4 | 1.24
B5 | 0.877
B6 | 1.43
B7 | 1.41
B8 | 0.755
B9 | 0.731
B10 | 1.49
B11 | 0.85
B12 | 2.39
B13 | 0.456
B14 | 1.08
B15 | 1.32
B16 | 1.08
B17 | 1.35
B18 | 1.37
B19 | 1.16
B20 | 0.866
B21 | 0.437
B22 | 0.797
